From paper PMC6919601, “Identification of Plasmodium dipeptidyl aminopeptidase allosteric inhibitors by high throughput screening” (PLoS ONE, 2019)
Where “and” joins values, the source holds several entries; their conditions need not be identical. Equal values may be shown once. In all, about 110,000 compounds went through this assay and about 230 (0.21%) showed an effect of 50% or more. The list shows a part of the results.

Biological target: DPAP1 (Plasmodium falciparum, UniProt Q8IIJ9)
Test: primary screen, percent inhibition; read by cleavage of a fluorogenic dipeptide substrate; higher = more effect of the substance
Set-up: species or system P. falciparum D10 trophozoite lysates; single well
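Also: 30 min substrate incubation versus DMSO and 10 µM JCP410 controls.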

Chain of DPAP1 (Q8IIJ9 whole entry, looked up): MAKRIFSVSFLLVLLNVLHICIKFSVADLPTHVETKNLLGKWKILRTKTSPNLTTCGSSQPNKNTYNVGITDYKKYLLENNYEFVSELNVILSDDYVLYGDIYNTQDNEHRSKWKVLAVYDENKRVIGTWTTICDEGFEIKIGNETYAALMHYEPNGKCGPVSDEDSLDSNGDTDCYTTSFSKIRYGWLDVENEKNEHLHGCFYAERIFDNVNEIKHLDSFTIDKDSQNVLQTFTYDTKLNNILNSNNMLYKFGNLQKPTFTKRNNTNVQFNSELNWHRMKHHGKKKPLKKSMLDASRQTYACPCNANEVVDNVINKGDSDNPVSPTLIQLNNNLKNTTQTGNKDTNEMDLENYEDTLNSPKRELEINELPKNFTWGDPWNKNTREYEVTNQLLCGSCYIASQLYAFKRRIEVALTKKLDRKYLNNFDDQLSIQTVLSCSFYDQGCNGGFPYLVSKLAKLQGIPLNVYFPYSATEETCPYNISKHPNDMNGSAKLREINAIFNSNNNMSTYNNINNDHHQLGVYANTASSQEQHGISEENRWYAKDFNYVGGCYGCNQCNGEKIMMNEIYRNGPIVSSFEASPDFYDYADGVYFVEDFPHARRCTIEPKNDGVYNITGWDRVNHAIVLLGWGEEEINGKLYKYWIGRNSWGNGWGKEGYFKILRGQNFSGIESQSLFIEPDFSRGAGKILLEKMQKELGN

| Structure (SMILES) | % Inhibition @ 10 uM |
| --- | --- |
| N#CC1=C(N)Oc2c(O)nc(S)nc2C1c1cccc([N+](=O)[O-])c1 (stereo not drawn) | -6.82% |
| COCCNC(=O)C1c2cc(OC)c(OC)cc2C(=O)N(C)C1c1cccnc1 (stereo not drawn) | -2.95% |
| COCc1cc(C2C(C#N)=C(N)Oc3[nH]nc(C)c32)ccc1OC (stereo not drawn) | -5.48% |
| O=C(CSCc1ccccc1Cl)NCCc1ccc(Cl)cc1 | 2.9% |
| COc1cc(C=C2C(=O)OC(C)(c3ccccc3)OC2=O)ccc1OCc1cccc(C(=O)O)c1 (stereo not drawn) | 3.6% |
| COc1ccc(C2=CC(c3sccc3C)n3nnnc3N2)cc1 (stereo not drawn) | 4.86% |
| CCOC(=O)c1oc2ccc3c(c2c1C)C(=O)CC1(CCN(C(=O)OCC)CC1)O3 | -1.75% |
| O=C(c1cnn2c(C(F)(F)F)cc(-c3ccco3)nc12)N1CCOCC1 | 1.65% |
| CC(C)c1ccc(N(CC(=O)N2CCCCC2)S(=O)(=O)c2ccccc2)cc1 | -1.12% |
| CC1(C)CC2=Nc3[nH]nc(-c4ccccc4)c3C(c3ccccc3)C2=C(O)C1 (stereo not drawn) | 4.17% |
| O=C(CSc1nnc(-c2cccnc2)o1)NCc1ccccc1 | 0.029% |
| COCCCNC(=O)Cn1ncc2ccc(Cl)cc21 | -2.88% |
| CC(=O)Nc1nonc1-c1nc2ccccc2n1CCC#N | 3.46% |
| CN(C)CCCN1C(=O)CSC1c1ccc(Cl)c(Cl)c1 (stereo not drawn) | -7.54% |
| Nc1nnc(-c2ccc(O)cc2)s1 | 6.63% |
| NC(=O)C1CCN(C(=O)Cn2cccc2C(=O)c2ccccc2)CC1 | 2.76% |
| NC(=O)C1CCN(C2CCC(c3ccccc3)CC2)CC1 (stereo not drawn) | 1.88% |
| CCOc1ccccc1NC1=C(Cl)C(=O)N(c2ccccc2)C1=O | 2.38% |
| Oc1cc(C(F)(F)F)nc(-c2ccccc2)n1 | 0.0538% and -1.97% |
| O=C(NC1CCN(Cc2ccccc2)CC1)c1cc2ccc3cccnc3c2[nH]1 | 5.73% |
| Cc1ccc(-c2cc(-c3ccccc3)nc(N3CCOCC3)n2)cc1 | -0.239% |

| Structure (SMILES) | % Inhibition @ 10 uM |
| --- | --- |
| N#Cc1ccccc1Cn1c(=O)n(CCC(=O)NCc2ccc3c(c2)OCO3)c(=O)c2sccc21 | -3.12% |
| O=C1CCCC(=O)C1=CNc1ccc(NC=C2C(=O)CCCC2=O)cc1 | -4.68% |
| CN(C)CCNC(=O)c1ccc(Cn2c(SCc3ccccc3)nc3cccnc32)cc1 | 3.95% |
| NS(=O)(=O)c1ccc(NC(=O)c2ccccc2Br)cc1 | -2.81% |
| O=c1oc2ccccc2c2c1C(c1ccccc1)c1c(c3ccccc3oc1=O)O2 | 12.5% |
| CC(C)C[C@H](NC(=O)OCc1ccccc1)C(=O)NC(C#N)c1ccc(Cl)s1 (stereo partly drawn) | 4.63% |
| COc1ccccc1C(=O)Nc1nnc(S(=O)(=O)N(C)Cc2ccc(F)cc2)s1 | -2.68% |
| C=CCOc1ccc(C2c3c(oc4ccccc4c3=O)C(=O)N2CCCN2CCOCC2)cc1OC (stereo not drawn) | 0.628% |
| COC(=O)Nc1ccc(S(=O)(=O)NCCc2c[nH]c3ccc(OC)cc23)cc1 | 6.43% |
| COc1ccc(C2CC(=O)N(C)C3=C2C(=O)CC(C)(C)C3)cc1OC (stereo not drawn) | 2.79% |
| Cc1cc(C)c(C(=O)Nc2ccccc2)s1 | 2.76% |
| Cc1ccc(C)n1-c1ccc(Cl)c(C(=O)O)c1 | 7.42% |
| COc1ccc(-c2cc(-c3ccc(C)cc3)nc(N3CCNCC3)n2)cc1OC | 1.88% |
| c1cncc(C(c2c[nH]c3ccccc23)c2c[nH]c3ccccc23)c1 | 92.4% |
| CC1CCCCC1NC(=O)CCn1ccc2cc(S(=O)(=O)N3CCCC3)ccc21 (stereo not drawn) | 4.32% |
| N=C(NOC(=O)C1CCCCC1)c1ccccn1 | -7.45% |
| O=C(Nc1ccc2c3c1C1C=CCC1CN3CC1CC=CC21)c1ccccc1 (stereo not drawn) | 2.4% |
| Cc1sc(NC(=O)C2CCC2)c(C#N)c1-c1ccccc1 | 2.36% |
| Cc1cc(C)c(C(=O)C2=C(O)C(=O)N(c3ccccn3)C2c2cccnc2)c(C)c1 (stereo not drawn) | -5.69% |
| O=C(CN1C(=O)c2ccccc2Sc2ncccc21)N1CCC(N2CCCCC2)CC1 | -12.2% |
| C=C1Cn2c(nc3c2c(=O)n(C)c(=O)n3C)S1 | -1.92% |

| Structure (SMILES) | % Inhibition @ 10 uM |
| --- | --- |
| Cc1ccccc1Cn1nnc(-c2ccc(F)cc2)n1 | -2.15% |
| COc1ccc(-n2cccc2/C=C2\C(=N)N3N=CSC3=NC2=O)cc1Cl | 0.208% |
| CCCN1CCC(N2CCN(c3ccccc3)CC2)CC1 | -3.5% |
| CC(C)C[C@H](NC(=O)c1ccc(CNC(=O)OC(C)(C)C)cc1)C(=O)N[C@@H](CCc1ccccc1)C(=O)COCc1ccccc1 | -3.97% |
| CC(C)(Oc1ccc(Cl)cc1)C(=O)N1CCN(c2ccccn2)CC1 | -2.65% |
| N#CCNC(=O)C1(NC(=O)OCc2ccccc2)CCCCCC1 | -0.207% |
| CCOc1ccc(S(=O)(=O)/N=C2\C=CC(=O)c3ccccc32)cc1 | 9.56% |
| CS(=O)(=O)N(CC(=O)NCc1ccccc1)c1cccc(Cl)c1 | -0.185% |
| COc1ccc(Cn2c(C(=O)O)c(CNCC3CCCO3)c3ccc(C)cc32)cc1 (stereo not drawn) | -3.88% |
| COc1ccc2c(c1)c(C(C)=O)c(C)n2-c1cccc(C(F)(F)F)c1 | 5.17% |
| Cc1ccc(NC(=O)Cn2cnc3ccccc3c2=O)cc1 | 2.22% |
| CCOC(=O)C1CCCN(C2CCN(C)CC2)C1 (stereo not drawn) | -8.8% |
| COc1ccc(OC)c(-c2c(C)sc(N)[n+]2C)c1 | 1.88% |
| CC(=O)N/C(=C\c1ccccc1)C(=O)Nc1ccc(O)cc1 | 0.0345% |
| Clc1ccc(CN2CCN(c3ccccc3Cl)CC2)cc1Cl | -1.92% |
| CCC(NC(=O)Nc1cccc2ccccc12)(C(F)(F)F)C(F)(F)F | 4.15% |
| COc1ccc(C)cc1NC(=O)COc1ccc(C)c(C)c1 | 22.7% |
| Cc1cc2c(cc3c(=O)n(CC(=O)N4CCc5ccccc5C4)ncn32)s1 | 3.29% |
| CCC(C)(C)C1CCc2c(sc(NC(=O)C3CCCCC3C(=O)O)c2C(N)=O)C1 (stereo not drawn) | 5.63% |
| O=C(CNS(=O)(=O)c1ccc(Br)s1)N1CCN(C2CCCCC2)CC1 | 0.723% |
| CC(C)c1nnc(NC(=O)c2nc(S(=O)(=O)Cc3ccc(F)cc3)ncc2Cl)s1 | 0.758% |
